Screen size: about 390,000 compounds; about 930 (0.24%) were called active. The inconclusive results got no clear call from the source; some entries with a clear call stand among them for comparison. Calls come from the whole dose curve; as a rule, active = well fitted activation curve with a large enough effect; inconclusive = small, poorly fitted or top-dose-only effect; inactive = no such curve, though single readings can be large or run the other way. Potencies beside an inconclusive call are fits to weak or partial responses and may not hold up.
Assay: qHTS for Suppressors of FUS Proteinopathy: Primary screen using FUS-linked yeast assay; note: nearly all actives have a fitted effect of over 55% in size;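 for growth rescue (activation): plate controls were DMSO vehicle for no effect and reference control for full effect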
Conditions: S. cerevisiae FUS-expressing, OD600, 24 h; Potency: growth rescue; growth rescue (activation): at 76.6 µM (top of the series)
Procedure, shortened: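 Absorbance at 600 nm, taken 24hr after compound addition, measured rescue of FUS-yeast growth at 30C. Induction used 2% galactose with seeding at OD 0.005. Controls: CP55940 from 92uM final, DMSO only.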
Potency is the fitted concentration of half-maximal effect; tags give direction and shape of the fitted curve.

| Compound | Potency | growth rescue (activation) |
| --- | --- | --- |
| Cc1cccc(COc2ccccc2C(=O)N(C)CC(=O)Nc2cccc(F)c2)c1 | inactive | – |
| COc1ccccc1NC(=O)Cn1ccn(-c2cc(C)cc(C)c2)c(=O)c1=O | inactive | – |
| C=CCN1C(=O)[C@H](CC(=O)NCc2ccc(OC)c(OC)c2)[C@@]2(C(=O)OCC)CCCC=C12 | inactive | – |
| COc1ccc(S(=O)(=O)N2C[C@@H](O)COC[C@@H]3O[C@H](CC(=O)NCCCN4CCOCC4)CC[C@H]32)cc1 | inactive | – |
| CCOC(=O)C1=CCC(c2cc3ccc(OC)cc3n2C(=O)OC(C)(C)C)NC1 (stereo not drawn) | inconclusive: 28.2 µM [activator, single point] | – |
| O=C1NC[C@@H](c2ccccc2)OC(=O)[C@@H](Cc2ccc(F)cc2)CC/C=C/C[C@@H]1CC(=O)N(CCO)Cc1ccccc1 | inconclusive: 25.1 µM [activator, single point] | – |
| COc1ccc(C2/C=C\CN(C(=O)OCC3c4ccccc4-c4ccccc43)CC(=O)N2Cc2cccc(F)c2)cc1 (stereo not drawn) | inconclusive: 15.8 µM [activator, partial curve, poor fit] | – |
| CCN(Cc1ccccc1)C(=O)Cn1ncc2c(=O)oc3ccc(C)cc3c21 | inactive | – |
| COc1ccc([C@H]2CC(=O)C=C(c3ccccc3)C2)cc1 | inactive | – |
| CC(=O)Nc1cc(-c2nn(C)c(=O)c3ccccc23)ccc1N1CCCCC1 | – | inconclusive: 71.3% [activator] |
| CCOc1ccccc1CNS(=O)(=O)c1cc(-c2onc(C)c2C)ccc1OC | inconclusive: 44.7 µM [activator, single point] | – |
| Nc1cccc(CP(=O)(c2ccccc2)c2ccccc2)c1 | inconclusive: 17.8 µM [activator, partial curve] | – |
| COc1cc(-c2cc(NC(C)=O)c3ncc(-c4ccc(C(C)=O)cc4)n3c2)cc(OC)c1OC | inconclusive: 39.8 µM [activator, single point] | – |
| CCOc1ccccc1Oc1nc(C)nc2c1oc1ccccc12 | inconclusive: 50.1 µM [activator, single point] | – |
| COc1ccc(Nc2nc(NN)nc(Nc3ccc(OC)cc3)n2)cc1 | inconclusive: 35.5 µM [activator, single point] | – |
| COc1ccccc1NS(=O)(=O)c1cc(NC(=O)c2[nH]c(C)c(C(C)=O)c2C)ccc1N1CCOCC1 | inconclusive: 12.6 µM [activator, partial curve] | – |
| CC(=O)Nc1cc(-c2ccc(CO)cc2)cn2c(-c3ccc(F)c(Cl)c3)cnc12 | inactive | – |
| CC(CNC(=O)CCCn1c(=O)c2cccn2c2ccc(F)cc21)c1ccccc1 (stereo not drawn) | inconclusive: 28.2 µM [activator, single point] | – |

Reference: PubChem BioAssay AID1347120 (National Center for Advancing Translational Sciences (NCATS), 2019)
